Measurements from patent US3997506A (priority 1974, dated 1976).

How the values were obtained:
[1] = system: human leucocytes (DNA synthesis); assay type: cell-based; conditions: for anti-mitotic activity (in words): 0.5 and 1 μg/ml; for incorporation of radio-activity (tritiated thymidine): Volunteer Nr. 4, control 4,799
[2] = system: human leucocytes (DNA synthesis)
[3] = Volunteer Nr. 1, 5 μg/ml, control 47,403
[4] = Volunteer Nr. 1, 10 μg/ml, control 47,403
[5] = Volunteer Nr. 1, 20 μg/ml, control 47,403
[6] = Volunteer Nr. 1, 30 μg/ml, control 47,403
[7] = Volunteer Nr. 1, 50 μg/ml, control 47,403
[8] = Volunteer Nr. 2, 2.5 μg/ml, control 19,649
[9] = Volunteer Nr. 2, 5 μg/ml, control 19,649
[10] = Volunteer Nr. 2, 10 μg/ml, control 19,649
[11] = Volunteer Nr. 2, 20 μg/ml, control 19,649
[12] = Volunteer Nr. 2, 30 μg/ml, control 19,649
[13] = Volunteer Nr. 2, 50 μg/ml, control 19,649
[14] = Volunteer Nr. 3, 2.5 μg/ml, control 20,593
[15] = Volunteer Nr. 3, 5 μg/ml, control 20,593
[16] = Volunteer Nr. 3, 10 μg/ml, control 20,593
[17] = Volunteer Nr. 3, 20 μg/ml, control 20,593
[18] = Volunteer Nr. 3, 30 μg/ml, control 20,593
[19] = Volunteer Nr. 3, 50 μg/ml, control 20,593

Row | SMILES | anti-mitotic activity (in words) [1] | incorporation of radio-activity (tritiated thymidine) ([1]; 0.5 μg/ml) | incorporation of radio-activity (tritiated thymidine) ([1]; 1 μg/ml) | incorporation of radio-activity (tritiated thymidine) [2, 3] | incorporation of radio-activity (tritiated thymidine) [2, 4] | incorporation of radio-activity (tritiated thymidine) [2, 5] | incorporation of radio-activity (tritiated thymidine) [2, 6] | incorporation of radio-activity (tritiated thymidine) [2, 7] | incorporation of radio-activity (tritiated thymidine) [2, 8] | incorporation of radio-activity (tritiated thymidine) [2, 9] | incorporation of radio-activity (tritiated thymidine) [2, 10] | incorporation of radio-activity (tritiated thymidine) [2, 11] | incorporation of radio-activity (tritiated thymidine) [2, 12] | incorporation of radio-activity (tritiated thymidine) [2, 13] | incorporation of radio-activity (tritiated thymidine) [2, 14] | incorporation of radio-activity (tritiated thymidine) [2, 15] | incorporation of radio-activity (tritiated thymidine) [2, 16] | incorporation of radio-activity (tritiated thymidine) [2, 17] | incorporation of radio-activity (tritiated thymidine) [2, 18] | incorporation of radio-activity (tritiated thymidine) [2, 19] | further results
1 | COc1cc2c(c(OC)c1OC)-c1ccc(OC)c(=O)cc1[C@@H](NC(C)=O)CC2 [Colchicine, colchicine, reference compound] | definite anti-mitotic activity | 3,450 cpm | 2,384 cpm | 14,190 cpm | 10,884 cpm | 7,945 cpm | 4,874 cpm | 4,910 cpm | 8,103 cpm | 8,756 cpm | 6,046 cpm | 8,477 cpm | 8,136 cpm | 5,384 cpm | 5,242 cpm | 5,117 cpm | 6,450 cpm | 3,858 cpm | 3,044 cpm | 2,107 cpm | anti-mitotic activity (in words) ([2]; 2.5 μg/ml): very substantial
2 | COc1cc2c(c(OC)c1OC)-c1ccc(SC)c(=O)cc1C(NC(=O)C13CC4CC(CC(C4)C1)C3)CC2 (single isomer, unassigned) [Derivative, N-desacetyl-N-adamantoyl-thiocolchicine] | markedly stronger with the derivative than with colchicine | 3,322 cpm | 1,713 cpm | 5,703 cpm | 3,190 cpm | 443 cpm | 195 cpm | 138 cpm | 5,359 cpm | 4,035 cpm | 1,766 cpm | 926 cpm | 435 cpm | 193 cpm | 6,259 cpm | 2,101 cpm | 968 cpm | 304 cpm | 200 cpm | 84 cpm | anti-mitotic activity compared with colchicine (in words) ([2]; general statement): equal to if not stronger than that of colchicine

Like-named read-outs stand apart in the source and are kept apart here.
